# According to ChEMBL document CHEMBL5303300, “EUbOPEN Chemogenomics Library - Multiplex” (2023):
# Certain results were filed several times, with different values. Only these are listed. There may be further records. Values given together repeat one measurement across runs, samples, wells, individuals or studies.
# System: U2OS
# Assay: Multiplex assay against U2OS
# Assay type: toxicity, cell-based
# Conditions: human, number of replicates 2
# Summary of the method: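 Live cells carried four stains from seeding: Hoechst33342, BioTracker Green Microtubule Cytoskeleton Dye, MitoTracker Red and Annexin V Alexa Fluor 680. They were imaged on a CQ1 microscope at 37°C and 5% CO2 after compound addition. Using CellPathfinder machine-learning gating, cells were split into Hoechst high-intensity objects or normal cells, normal cells into healthy, pyknosed or fragmented nuclei, and pyknosed cells into mitotic or apoptotic; tubulin, mitochondrial-mass and membrane-permeability phenotypes are per cents of healthy-nucleus cells.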
# [1] = 12 h, 1 µM, compound concentration 1 uM
# [2] = 12 h, 10 µM, compound concentration 10 uM
# [3] = 24 h, 1 µM, compound concentration 1 uM
# [4] = 24 h, 10 µM, compound concentration 10 uM
# [5] = 48 h, 1 µM, compound concentration 1 uM
# [6] = 48 h, 10 µM, compound concentration 10 uM
Compound,Total Cell Count [1],Population Fragmented Nuclei (%) [2],Total Cell Count [2],Total Cell Count [3],Total Cell Count [4],Population Fragmented Nuclei (%) [5],Total Cell Count [5],Total Cell Count [6],Population Fragmented Nuclei (%) [1],Population Fragmented Nuclei (%) [6],other results
CCn1c(-c2nonc2N)nc2cncc(C(=O)N3CC[C@H](N)C3)c21.Cl,30 and 221,22% and 4%,49 and 187,35 and 280,58 and 244,18% and 3%,53 and 573,78 and 354,–,–,Population Mitotic Cells (%) [1]: 50% and 10%; Population Mitotic Cells (%) [3]: 20% and 3%
Cc1cc(NC(=O)c2cccc(NC(=O)/C=C/CN(C)C)c2)ccc1Nc1nccc(-c2cccnc2)n1,43 and 217,–,42 and 156,50 and 302,48 and 155,–,65 and 492,48 and 147,39% and 5%,20% and 6%,Population Fragmented Nuclei (%) [3]: 34% and 7%; Population Mitotic Cells (%) [3]: 66% and 13%
COc1cccc(Cn2cc(C(=O)Nc3ccc(C)c(S(=O)(=O)N4CCOCC4)c3)c(-c3ccc(C)cc3)n2)c1,28 and 125,16% and 3%,37 and 200,29 and 160,39 and 233,24% and 4%,41 and 305,289 and 37,32% and 9%,–,Population Membrane Permeable-Phenotype (%) [3]: 21% and 6%; Population Mitochondria Different-Phenotype (%) [4]: 5% and 24%
CN1CCN(c2ccc(-n3cc(-c4ccncc4OCC4CCNCC4)cn3)cc2)CC1,46 and 193,34% and 10%,59 and 214,63 and 280,64 and 222,37% and 4%,108 and 467,–,34% and 6%,42% and 9%,Population Mitotic Cells (%) [1]: 0% and 28%; Population Fragmented Nuclei (%) [3]: 26% and 3%; Population Mitotic Cells (%) [5]: 45% and 13%
CCn1ccc(Nc2ncc3c(n2)-c2c(nn(C)c2-c2ccc(-c4cnn(C)c4)cc2Cl)CC3)n1,262 and 33,–,32 and 236,344 and 45,36 and 285,2% and 13%,590 and 61,45 and 292,–,–,Population Membrane Permeable-Phenotype (%) [1]: 1% and 14%; Population Fragmented Nuclei (%) [3]: 4% and 17%; Population Membrane Permeable-Phenotype (%) [3]: 2% and 13%; Population Mitotic Cells (%) [5]: 36% and 0%
COc1ncc(-c2cc(-c3ncc(CN4C[C@@H](C)O[C@@H](C)C4)o3)c3cn[nH]c3c2)cc1NS(C)(=O)=O,273 and 43,21% and 4%,57 and 201,337 and 53,53 and 234,–,562 and 66,68 and 267,–,19% and 6%,Population Fragmented Nuclei (%) [4]: 24% and 7%
CC1=C(C)C(=O)C(C(C)(C)CC(=O)N(CCCCSC[C@H]2O[C@@H](n3cnc4c(N)ncnc43)[C@H](O)[C@@H]2O)Cc2cccc(-c3ccc(Cl)cc3)c2)=C(C)C1=O,257 and 40,–,36 and 225,358 and 58,26 and 246,–,86 and 746,37 and 300,–,16% and 5%,Population Fragmented Nuclei (%) [4]: 15% and 4%; Population Mitotic Cells (%) [5]: 0% and 60%
CS(=O)(=O)c1ccc(C(=O)Nc2cccc(COc3ccc(Br)cc3CN3CC[C@@H](O)C3)c2)c(Cl)c1.O=CO,31 and 148,–,43 and 226,32 and 201,47 and 251,–,54 and 356,51 and 335,–,–,Population Mitotic Cells (%) [5]: 40% and 12%
CS(=O)(=O)c1ccc(C(=O)Nc2cc(F)cc(COc3ccc(Br)cc3CN3CC[C@H](O)C3)c2)c(Cl)c1.O=CO,56 and 182,–,41 and 208,268 and 64,40 and 242,–,98 and 427,36 and 270,–,–,–
CS(=O)(=O)c1ccc(C(=O)Nc2cccc(COc3ccc(Br)cc3CN3CC[C@H](O)C3)c2)cc1.O=CO,50 and 243,–,29 and 241,62 and 337,43 and 276,–,104 and 603,48 and 349,–,–,Population Mitotic Cells (%) [1]: 0% and 27%; Population Mitotic Cells (%) [2]: 0% and 29%
CCN1CCN(Cc2ccc(C(=O)Nc3ccc(C)c(Oc4ccc5c(c4)CC(=O)N5)c3)cc2C(F)(F)F)CC1.Cl.Cl,176 and 32,–,53 and 250,39 and 235,62 and 298,–,62 and 415,52 and 316,5% and 16%,–,–
CS(=O)(=O)c1ccc(C(=O)Nc2cccc(COc3ccc(Br)cc3CN3CCC[C@H](O)C3)c2)c(Cl)c1.O=CO,19 and 185,–,39 and 203,31 and 237,41 and 229,–,47 and 430,46 and 305,–,–,–
CS(=O)(=O)c1ccc(NC(=O)c2cccc(COc3ccc(Br)cc3CNCCO)c2)c(Cl)c1.O=CO,42 and 201,–,40 and 193,53 and 271,51 and 222,–,71 and 361,43 and 253,–,–,–
CCNc1ccc(-c2nn(-c3ccccc3C)c3c2C(C)Cc2nc(NC(=O)OC)sc2-3)cn1.O=C(O)C(F)(F)F (stereo not given),–,–,28 and 229,–,37 and 203,–,–,30 and 182,–,56% and 9%,Population Mitochondria Different-Phenotype (%) [2]: 0% and 46%; Population Fragmented Nuclei (%) [4]: 51% and 14%; Population Mitochondria Different-Phenotype (%) [6]: 0% and 68%
CS(=O)(=O)c1ccc(C(=O)Nc2cccc(COc3ccc(Br)cc3CN[C@H]3CCC[C@@H]3O)c2)c(Cl)c1.O=CO,32 and 221,–,214 and 55,49 and 268,53 and 247,–,65 and 433,67 and 303,–,–,–
COc1nc2ccc([C@@](O)(c3ccc(Cl)cc3)c3cncn3C)cc2c(Cl)c1Cc1ccc(-n2cccn2)cc1 [JNJ-53721590],30 and 157,–,240 and 55,35 and 216,265 and 48,2% and 19%,370 and 42,70 and 284,26% and 3%,28% and 7%,Population Apoptotic (%) [1]: 20% and 82%; Population Mitotic Cells (%) [1]: 80% and 17%; Population Mitotic Cells (%) [4]: 20% and 63%; Population Membrane Permeable-Phenotype (%) [5]: 2% and 17%; Population Tubulin-Different-Phenotype (%) [5]: 59% and 13%
COc1ccc(-c2cc3c(C)nc(N)nc3n([C@H]3CC[C@H](OCCO)CC3)c2=O)cn1 [PF-04691502],33 and 303,–,33 and 157,36 and 392,143 and 41,–,50 and 414,36 and 147,36% and 8%,–,–
C=CC(=O)Nc1ccc2[nH]c(=O)n(C3CCN(Cc4ccc(-c5ccc6c(c5)NC(=O)CO6)cc4)CC3)c2c1 [RL2578],36 and 210,–,38 and 313,45 and 284,52 and 342,15% and 2%,73 and 576,52 and 444,–,–,Population Apoptotic (%) [1]: 20% and 79%; Population Membrane Permeable-Phenotype (%) [1]: 12% and 1%; Population Mitotic Cells (%) [1]: 80% and 20%; Population Mitochondria Different-Phenotype (%) [4]: 7% and 37%
C[C@@H](OC[C@@]1(c2ccccc2)CC[C@]2(CCC(=O)N2)CN1)c1cc(C(F)(F)F)cc(C(F)(F)F)c1 [ROLAPITANT],34 and 274,5% and 21%,271 and 28,40 and 386,374 and 36,–,73 and 760,822 and 52,–,–,Population Mitotic Cells (%) [3]: 0% and 47%; Population Fragmented Nuclei (%) [4]: 2% and 16%; Population Tubulin-Different-Phenotype (%) [6]: 90% and 29%
Cc1c(C(=O)Nc2ccc(N3C[C@@H](C)O[C@@H](C)C3)nc2)cccc1-c1ccc(OC(F)(F)F)cc1 [SONIDEGIB],38 and 232,26% and 3%,34 and 218,41 and 356,39 and 300,33% and 2%,51 and 739,81 and 683,31% and 6%,19% and 2%,Population Apoptotic (%) [2]: 0% and 45%; Population Fragmented Nuclei (%) [3]: 26% and 5%; Population Fragmented Nuclei (%) [4]: 28% and 2%
